Data published in article PMC4336329 (PLoS ONE, 2015).
Screen size: about 310,000 compounds; about 14,000 (4.5%) showed an effect of 50% or more. The effect is printed as a negative number. The list shows a part of the results.

Target: human ether-à-go-go-related gene (hERG) potassium channel (human, UniProt Q12809)
Assay: primary screen, population patch clamp on CHO cells stably expressing hERG
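Note: peak tail current of the secondary pulse compared with the same well before compound.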

Sequence of human ether-à-go-go-related gene (hERG) potassium channel (Q12809 whole entry, looked up): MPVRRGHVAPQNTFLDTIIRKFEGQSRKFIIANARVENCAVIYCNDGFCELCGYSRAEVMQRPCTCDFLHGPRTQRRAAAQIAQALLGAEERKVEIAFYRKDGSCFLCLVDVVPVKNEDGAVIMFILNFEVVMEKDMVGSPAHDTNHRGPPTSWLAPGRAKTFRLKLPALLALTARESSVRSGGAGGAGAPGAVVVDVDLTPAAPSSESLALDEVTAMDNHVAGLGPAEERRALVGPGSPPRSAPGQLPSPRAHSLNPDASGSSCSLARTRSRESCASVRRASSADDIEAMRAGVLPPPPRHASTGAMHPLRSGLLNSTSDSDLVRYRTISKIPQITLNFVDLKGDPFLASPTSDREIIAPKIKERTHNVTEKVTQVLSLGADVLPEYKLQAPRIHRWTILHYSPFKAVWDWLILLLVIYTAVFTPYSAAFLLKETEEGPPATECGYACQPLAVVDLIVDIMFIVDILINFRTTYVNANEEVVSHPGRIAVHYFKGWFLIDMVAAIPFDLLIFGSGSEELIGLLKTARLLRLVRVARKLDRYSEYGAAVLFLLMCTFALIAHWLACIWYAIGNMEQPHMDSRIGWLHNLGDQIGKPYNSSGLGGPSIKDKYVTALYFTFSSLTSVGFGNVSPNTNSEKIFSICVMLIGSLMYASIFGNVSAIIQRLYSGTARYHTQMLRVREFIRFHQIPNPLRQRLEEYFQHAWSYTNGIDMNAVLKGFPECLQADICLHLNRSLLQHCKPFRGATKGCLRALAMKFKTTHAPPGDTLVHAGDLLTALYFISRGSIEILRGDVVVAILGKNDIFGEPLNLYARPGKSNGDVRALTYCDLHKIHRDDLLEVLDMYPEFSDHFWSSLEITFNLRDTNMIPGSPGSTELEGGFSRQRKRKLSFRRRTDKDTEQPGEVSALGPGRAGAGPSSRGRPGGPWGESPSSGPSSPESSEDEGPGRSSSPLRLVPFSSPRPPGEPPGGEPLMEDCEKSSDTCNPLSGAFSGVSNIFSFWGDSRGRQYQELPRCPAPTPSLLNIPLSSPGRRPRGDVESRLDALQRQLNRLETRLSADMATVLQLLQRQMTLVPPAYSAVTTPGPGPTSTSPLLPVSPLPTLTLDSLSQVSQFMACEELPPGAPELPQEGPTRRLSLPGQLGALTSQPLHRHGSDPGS

| SMILES | hERG current change (%, negative = inhibition) at 10uM |
| --- | --- |
| O=C(NCC(c1cccnc1)N1CCN(c2ccccc2)CC1)c1ccc2c(c1)OCO2 (stereo not shown) | -26.5% |
| O=C(NNC(=O)c1ccccc1Cl)c1ccc(-n2cncn2)c([N+](=O)[O-])c1 | 1.43% |
| O=C(CC1C(=O)N(c2ccc(Cl)cc2)C(=S)N1CCc1ccncc1)Nc1ccc(F)cc1 (stereo not shown) | -4.88% |
| Cc1cc(-c2nn(-c3ccccc3F)cc2CN2CCCC(CO)C2)c(C)s1 (stereo not shown) | -7.33% |
| Cc1cc(CN(C)C)c(O)c(C2(C)CCCCC2)c1 | 5.11% |
| CC(Sc1ccc(S(=O)(=O)N(C)C)cn1)C(=O)NC1CCCC1 (stereo not shown) | -15.9% |
| Cc1ccc(C#CC[N+]2(C)CCCCC2)cc1.[Br-] | 14% |
| C=CCn1c(SCC(=O)NC(=O)NC)nnc1C1CCCCC1 | 37.5% |
| CC(C)CC(NC(=O)C(NC(=O)C1OC2OC(C)(C)OC2C2OC(C)(C)OC12)C(C)C)C(=O)O (stereo not shown) | 30.2% |
| Cc1ccc2sc(N(CCCN(C)C)C(=O)c3ccc(S(=O)(=O)N4CCCCCC4)cc3)nc2c1C.Cl | -23.4% |
| O=C(CCSc1nnc(-c2ccco2)o1)Nc1ccccc1 | -9.27% |
| CC(C(=O)Nc1cc(Cl)cc(Cl)c1)N1CCCC1 (stereo not shown) | -2.66% |
| O=[N+]([O-])c1ccc(N2CCN(c3ccc(F)cc3)CC2)cc1 | -17.9% |
| Cn1c(SCC(=O)N2CCCCC2)nnc1-c1ccc(S(=O)(=O)N2CCOCC2)cc1 | -9.36% |
| CCN(CC)CCNC(=O)Cn1cnc2sc(C)c(S(=O)(=O)N3CCOCC3)c2c1=O | 14.4% |
| O=C(NC(CC1CCCCC1)C(=O)O)c1ccccc1 (stereo not shown) | 11.9% |
| Fc1ccccc1Cc1noc(CN2CCN(C/C=C/c3ccccc3)CC2)n1 | -74% |
| CCCn1c(CCc2ccccc2)nnc1SCC(=O)N1CCCC1 | -19.7% |
| COc1ccc(C(=O)C2CCCN(S(=O)(=O)C(C)C)C2)c(C)c1 (stereo not shown) | 3.51% |
| COc1cccc(C(=O)Nc2cccc3cccnc23)c1OC | 21.8% |
| CCOc1ccc(C(=O)OCC(=O)N2CC(C)OC(C)C2)cc1OCC (stereo not shown) | 2.83% |
| O=C(c1ccco1)N1CCC(c2nc(-c3ccc(F)cc3)no2)CC1 | -41.8% |
| O=C(OCC(=O)N1CCc2ccccc21)c1ccccc1F | 5.65% |

| SMILES | hERG current change (%, negative = inhibition) at 10uM |
| --- | --- |
| COc1ccc(-c2csc(Nc3cccnc3)n2)cc1OC | 0.265% |
| COC(=O)c1ccc(N)c(N=CC2=C(O)CC(C)(C)CC2=O)c1 | -2.21% |
| CC(=O)Nc1nccc(-c2cc(-c3ccccc3)no2)n1 | 9.44% |
| CN1CCN(S(=O)(=O)c2ccc3c(c2)C(C)(C)C(=O)N3C)CC1 | 14.3% |
| Nc1nc(-c2ccc(Cl)cc2)cn1N | -2.98% |
| Cn1c(C(=O)OCC(=O)NCCc2ccccc2)cc2sccc21 | 4.05% |
| CC1=NN(c2ccccc2)C(=O)/C1=C/c1c(O)n(-c2ccc(F)cc2)[nH]c1=O | 46% |
| COc1ccccc1C1CCN(C(=O)c2ccc(Cl)cc2)CC1 | -22.8% |
| CCOc1ccc(N(CC(=O)Nc2nccs2)S(=O)(=O)c2c(C)noc2C)cc1 | -5.98% |
| Cc1ccc(/C=C(/NC(=O)c2ccccc2)C(=O)NC(Cc2c[nH]c3ccccc23)C(=O)O)cc1 (stereo not shown) | 12.8% |
| O=C(Nc1ccc2ncccc2c1)c1ccccc1Br | 6.61% |
| CCOc1ccc(/C=N/NC(=O)c2cc3c(OC)cccc3[nH]2)cc1 | 20.7% |
| CCN(CC)CC(=O)Nn1c(C)nc2c(ncn2-c2ccccc2)c1=O | 4.24% |
| CN(C)C1=NC(N(C)C)=NP(N(C)C)(N(C)C)=N1 | 18.3% |
| Cc1cc(C)n(CC(=O)n2c3c(c4ccccc42)CCCC3)n1 | 14.7% |
| COc1ccc(NS(=O)(=O)c2cccc(NC(=O)COc3ccc(OC)cc3)c2)cc1 | 7.69% |
| Cc1cccc(NC2=C(NCCO)C(=O)c3ccccc3C2=O)c1 | -25.4% |
| CCOC(=O)c1c(C)[nH]c(C)c1C(=O)COC(=O)c1cccc(S(=O)(=O)NC)c1 | -7.56% |
| CCCCCCSc1nsc(NC(C)=O)n1 | 4.73% |
| CCN(CC)CCCN(Cc1cc2cc(OC)ccc2[nH]c1=O)C(=O)Nc1ccccc1 | -55.3% |
| CCOC(=O)c1ccc(NC(=S)Nc2cccc(N)n2)cc1 | 8.76% |
| COC(=O)c1cc(C#N)c(Oc2ccccc2OC)nc1C | -9.54% |
| Cc1nc2c3ccccc3nc(NNC(=O)CCC(=O)N3CCC(C)CC3)n2n1 | 0.182% |
